Measurements reported in PubChem BioAssay (NCATS).
This list was built around the results that the source calls inconclusive (neither active nor inactive); the mix of calls is not that of the screen. A call without a number means that no potency is given here. For some assays here: Potencies of inconclusive entries are doubtful fits and often do not repeat. The source made the active and inactive calls. Unless noted, calls follow the shape of the dose curve; as a rule, active = well fitted curve in the direction sought with a large enough effect; inconclusive = small, poorly fitted or top-dose-only effect, or another doubt; inactive = no such curve, though single readings can be large; an effect the other way counts as inactive or inconclusive.

What was measured:
[1] = P-glycoprotein substrates identified in KB-8-5-11 adenocarcinoma cell line, qHTS therapeutic library screen (AID 1346987); settings: activity change, negative = cytotoxicity: at 44.5 µM (top of the series); also: nearly all actives have a fitted effect of over 65% in size; also: potency is read from the fitted curve at half-maximal effect
In short: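 P-gp-mediated resistance screen: KB-8-5-11 cells treated 72 h with compounds in dose-response. CellTiter-Glo viability.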

[2] = system: Zika virus NS2B-NS3 protease (unlinked complex); experiment: Primary screen GU Rhodamine qHTS for Zika virus inhibitors: Unlinked NS2B-NS3 protease assay (AID 1347159); settings: Recombinant ZIKV NS2B-NS3 protease, Rhodamine110 substrate fluorescence; activity change, negative = inhibition: at 107 µM (top of the series); also: potency is read from the fitted curve at half-maximal effect; nearly all actives have a fitted effect of over 60% in size
In short: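 A qHTS format was used, with compound concentrations ranging up to 114 microM. Each compound was preincubated with 25 nM NS2B-NS3 protease, and the substrate was then added at 1.5 microM. Curves were fitted with a 4-parameter Hill model.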

[3] = system: Zika virus NS2B-NS3 protease (linked construct); experiment: Primary screen NINDS Rhodamine qHTS for Zika virus inhibitors (AID 1347160); also: nearly all actives have a fitted effect of over 55% in size; also: potency is read from the fitted curve at half-maximal effect
In short: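 Kinetic fluorescence (Ex 480 nm, Em 540 nm) over 15 min with 1.5 microM Rhodamine110 peptide and 25 nM linked protease.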

[4] = molecular target: Calcium and integrin-binding protein 1 (Homo sapiens) (UniProt Q99828); experiment: Primary qHTS for Identification of Calcium Integrin Binding Protein 1 (CIB1) Competitor (AID 1508620);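 also: GST tagged CIB1 binding a fluorescein labelled alphaIIb integrin peptide tracer; top concentration of the series differs between compounds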
Chain of UniProt Q99828 (Q99828 whole entry, looked up): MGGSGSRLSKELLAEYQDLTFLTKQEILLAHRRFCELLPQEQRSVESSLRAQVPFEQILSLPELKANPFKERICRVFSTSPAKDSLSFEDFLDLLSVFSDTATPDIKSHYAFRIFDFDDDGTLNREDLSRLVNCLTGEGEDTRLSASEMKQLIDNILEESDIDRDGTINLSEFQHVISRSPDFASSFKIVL
In short: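 CIB1-GST (1 uM final) and compound incubated 15 min at room temperature before adding FITC-alphaIIb peptide tracer (100 nM final). Competition for binding read by fluorescence polarization (ex 480, em 540) after another 15 min at room temperature.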

[5] = Primary qHTS for inhibitors of nuclear receptor binding SET domain protein 2 (NSD2) in an isogenic RCH-ACV NSD2 p.E1099K mutant (9B) (AID 1645876); settings: activity change, negative = viability loss: at 44.9 µM (top of the series) unless noted; also: nearly all actives have a fitted effect of over 70% in size; also: potency is read from the fitted curve at half-maximal effect
[6] = molecular target: Phospholipid hydroperoxide glutathione peroxidase GPX4 (Homo sapiens) (UniProt P36969); experiment: Primary qHTS Assay for Inhibitors of Recombinant Selenoprotein Glutathione Peroxidase 4 (GPX4) (AID 1845192); settings: activity change, negative = inhibition: at 50 µM (top of the series) unless noted; also: nearly all actives have a fitted effect of over 65% in size
Chain of UniProt P36969 (P36969 whole entry, looked up): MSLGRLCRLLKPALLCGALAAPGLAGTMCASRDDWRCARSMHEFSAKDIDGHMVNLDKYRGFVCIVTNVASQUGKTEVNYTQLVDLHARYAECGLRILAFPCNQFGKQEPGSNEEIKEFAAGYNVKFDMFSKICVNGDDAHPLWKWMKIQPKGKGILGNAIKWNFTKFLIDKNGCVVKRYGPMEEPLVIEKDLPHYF
In short: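 NADPH consumption, followed by fluorescence at 340/450 nm between 0 and 15 min, reports GPX4 activity via coupled glutathione reductase (100 nM). Enzyme 200 nM was pre-exposed to compound 30 min; 0.5 mM cumene hydroperoxide and 1 mM GSH served as substrates.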

[7] = Primary fluorescence-based thiol-reactive (MSTI) qHTS assay for identification of artifact compounds. (AID 1845221);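 also: potency is read from the fitted curve at half-maximal effect; thiol-reactive compounds lower the probe fluorescence signal; nearly all actives have a fitted effect of over 65% in size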
In short: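 Compounds were incubated 1 h at room temperature in the dark with the MSTI probe (4 uM) in PBS pH 7.4, 2% DMSO. Signals were normalized between Acetyl-MSTI and MSTI.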

[8] = Primary redox qHTS assay for identification of artifact compounds. (AID 1845223); also: potency is read from the fitted curve at half-maximal effect
In short: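 Amplex Red (25 uM) and HRP (250 mU/mL) in HBSS, with compounds for 15 min, then 250 uM DTT for 30 min, room temperature, dark. Fluorescence 525/598 nm read; normalized to DMSO and 10 uM DA3003; Hill fit.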

HeLa = experiment: Primary qHTS to identify gynecologic anti-cancer compounds using libraries of approved drugs and bioactive compounds (AID 1345084); settings: Gynecologic cancer cell panel viability, ATPlite luminescence, 48 h; series mostly up to 57.5 µM; also: nearly all actives have a fitted effect of over 55% in size; also: potency is read from the fitted curve at half-maximal effect
In short: (§1)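 Luminescence from the ATPlite ATP-monitoring reagent indicates viable cell number; lower signal means cytotoxicity. Cells received compound 16 h after seeding and were exposed for 48 h across five concentrations.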

PA-1 = experiment: as above; settings: Gynecologic cancer cell panel viability, ATPlite luminescence, 48 h; series mostly up to 57.5 µM
In short: as §1

SKOV3 = experiment: as above; settings: Gynecologic cancer cell panel viability, ATPlite luminescence, 48 h; series mostly up to 57.5 µM
In short: as §1

Tov112D = experiment: as above; settings: Gynecologic cancer cell panel viability, ATPlite luminescence, 48 h; series mostly up to 57.5 µM
In short: as §1

Tov-21-G = experiment: as above; settings: Gynecologic cancer cell panel viability, ATPlite luminescence, 48 h; series mostly up to 57.5 µM
In short: as §1

[9] = molecular target: Cytochrome P450 3A4 (Homo sapiens) (UniProt P08684); experiment: qHTS Assay for Inhibitors and Substrates of Cytochrome P450 3A4 (AID 884); settings: recombinant CYP3A4, Luciferin-PPXE luminescence; activity change, negative = inhibition: at 57.1 µM (top of the series); also: nearly all actives have a fitted effect of over 50% in size
Chain of UniProt P08684 (P08684 whole entry, looked up): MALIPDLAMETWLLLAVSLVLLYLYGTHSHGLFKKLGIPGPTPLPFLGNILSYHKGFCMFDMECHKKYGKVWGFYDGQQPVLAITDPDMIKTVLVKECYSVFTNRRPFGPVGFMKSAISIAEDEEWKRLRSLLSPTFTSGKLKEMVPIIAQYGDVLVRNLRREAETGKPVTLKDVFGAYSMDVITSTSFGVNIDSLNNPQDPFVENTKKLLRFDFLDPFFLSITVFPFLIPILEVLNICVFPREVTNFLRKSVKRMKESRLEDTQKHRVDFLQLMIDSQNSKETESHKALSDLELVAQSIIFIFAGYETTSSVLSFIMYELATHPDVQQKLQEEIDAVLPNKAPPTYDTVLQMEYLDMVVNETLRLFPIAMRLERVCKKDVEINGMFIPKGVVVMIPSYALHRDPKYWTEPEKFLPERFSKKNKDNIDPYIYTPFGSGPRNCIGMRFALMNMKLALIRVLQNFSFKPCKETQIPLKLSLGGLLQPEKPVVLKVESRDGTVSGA
In short: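 20 nM human CYP3A4 with 25 uM Luciferin-PPXE (at KM) in 200 mM KPO4, preincubated 10 min with compound; NADPH regeneration started a 60 min RT reaction. Luciferin detected by luminescence, normalized to 57 uM ketoconazole as full inhibition.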

[10] = qHTS Assay for Lipid Storage Modulators (AID 1519; calls by dose curve); settings: Drosophila S3 cells, BODIPY lipid droplet/cell ratio, laser cytometry, cells loaded with oleic acid; activity change, negative = inhibition: at 57.5 µM (top of the series) unless noted
In short: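 Cells seeded at 5,000 per well were treated with compounds over a concentration series and loaded with oleic acid (400 uM, as added). Lipid droplet fluorescence (488 nm excitation, 500-530 nm channel) was read by laser-scanning cytometry and normalized to 20 uM Triacsin C.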

[11] = qHTS of pediatric cancer cell lines to identify multiple opportunities for drug repurposing: Primary screen for TC32 cells (AID 1347089); also: nearly all actives have a fitted effect of over 60% in size
In short: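 qHTS, TC32, 48 h drug treatment, CellTiter-Glo luminescence as a proxy for metabolically active cells; primary top concentration 46 µM (MIPE 11-pt, NPC 8-pt); confirmatory 11-pt.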

[12] = qHTS of pediatric cancer cell lines to identify multiple opportunities for drug repurposing: Primary screen for A673 cells (AID 1347092); settings: A673 Ewing sarcoma viability, CellTiter-Glo ATP luminescence, 48 h; activity change, negative = cytotoxic: at 46 µM (top of the series); also: nearly all actives have a fitted effect of over 45% in size
In short: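 Luminescence from CellTiter-Glo, taken after 15 min at room temperature, served as the proxy for metabolically active cells following 48 h treatment. Both potency and efficacy were taken from curves fitted to the titration data.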

[13] = qHTS of pediatric cancer cell lines to identify multiple opportunities for drug repurposing: Primary screen for SK-N-MC cells (AID 1347093); settings: SK-N-MC viability, CellTiter-Glo luminescence, 48 h; activity change, negative = cytotoxic: at 46 µM (top of the series); also: potency is read from the fitted curve at half-maximal effect
In short: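 Metabolically active cells were quantified by ATP-dependent luminescence (CellTiter-Glo, 15 min at room temperature) following 48 h treatment. Cells had been plated at 500-1,000 per well and settled for 5 h beforehand.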

[14] = qHTS of pediatric cancer cell lines to identify multiple opportunities for drug repurposing: Primary screen for Saos-2 cells (AID 1347097); settings: Saos-2 viability, CellTiter-Glo ATP luminescence, 48 h; activity change, negative = cytotoxic: at 46 µM (top of the series); also: nearly all actives have a fitted effect of over 40% in size
In short: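 Following a 5-hour attachment period, cells at 500-1,000/well received compounds and were cultured for 48 hours. CellTiter-Glo was added and luminescence read to estimate viable, metabolically active cells.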

[15] = qHTS of pediatric cancer cell lines to identify multiple opportunities for drug repurposing: Primary screen for OHS-50 cells (AID 1347103); settings: OHS-50 osteosarcoma viability, CellTiter-Glo luminescence, 48 h; activity change, negative = cytotoxic: at 57.3 µM (top of the series); also: nearly all actives have a fitted effect of over 40% in size
In short: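 Cells (500-1,000/well) rested 5 h, then received compounds for 48 h; metabolically active cells were measured by CellTiter-Glo luminescence. Final concentrations spanned up to 46 µM (MIPE, 11-point) or 0.59 nM-46 µM (NPC, 8-point) in primary screens, 11-point in follow-ups.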

[16] = molecular target: Cytochrome P450 2D6 (Homo sapiens) (UniProt P10635); experiment: Cytochrome P450 family 2 subfamily D member 6 (CYP2D6) small molecule antagonists: luciferase biochemical (cell-free) qHTS assay (AID 1645840; active = well fitted curve in the direction sought with a large enough effect in the repeat runs; inconclusive = weak or mixed curves; inactive = no such curve, though single readings can be large; an effect the other way counts as inactive or inconclusive; also: nearly all actives have a fitted effect of over 55% in size)
Chain of UniProt P10635 (P10635 whole entry, looked up): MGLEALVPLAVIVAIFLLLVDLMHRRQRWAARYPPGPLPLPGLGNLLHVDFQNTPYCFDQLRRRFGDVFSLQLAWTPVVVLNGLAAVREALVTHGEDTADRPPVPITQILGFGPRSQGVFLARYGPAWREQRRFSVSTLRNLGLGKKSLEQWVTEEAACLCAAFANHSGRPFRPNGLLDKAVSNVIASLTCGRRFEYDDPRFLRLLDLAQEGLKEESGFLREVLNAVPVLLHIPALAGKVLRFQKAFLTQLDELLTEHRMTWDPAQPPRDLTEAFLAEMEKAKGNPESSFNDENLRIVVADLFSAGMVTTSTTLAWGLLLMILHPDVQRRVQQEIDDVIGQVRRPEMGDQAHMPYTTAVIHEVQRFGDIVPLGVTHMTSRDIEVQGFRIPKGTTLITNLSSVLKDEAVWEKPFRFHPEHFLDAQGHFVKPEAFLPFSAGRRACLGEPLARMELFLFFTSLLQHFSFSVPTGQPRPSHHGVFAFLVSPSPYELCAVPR
In short: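 P450-Glo luminescent screen: recombinant CYP2D6 enzyme–proluciferin substrate mix preincubated with compound 10 min at room temperature, then NADPH regeneration added for 1 h at room temperature. Detection reagent added for 20 min; luciferin light read as relative luminescence units.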

7G8 = experiment: qHTS profiling for inhibitors of Plasmodium falciparum proliferation (AID 504749); also: nearly all actives have a fitted effect of over 60% in size; also: potency is read from the fitted curve at half-maximal effect; settings: P. falciparum in erythrocytes, SYBR Green DNA, 72 h; series mostly up to 28.7 µM
In short: (§2)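 Three-day growth assay of blood-stage parasites in erythrocytes (0.3% parasitemia, 2.5% hematocrit) at 37 C, 5% CO2, quantified by SYBR Green DNA staining after overnight detergent lysis.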

CP250 = experiment: as above; settings: P. falciparum in erythrocytes, SYBR Green DNA, 72 h; series mostly up to 28.7 µM
In short: as §2

CP260 = experiment: as above; settings: P. falciparum in erythrocytes, SYBR Green DNA, 72 h; series mostly up to 28.7 µM
In short: as §2

CP297 = experiment: as above; settings: P. falciparum in erythrocytes, SYBR Green DNA, 72 h; series mostly up to 28.7 µM
In short: as §2

P93_24 = experiment: as above; settings: P. falciparum in erythrocytes, SYBR Green DNA, 72 h; series mostly up to 28.7 µM
In short: as §2

TAB165 = experiment: as above; settings: P. falciparum in erythrocytes, SYBR Green DNA, 72 h; series mostly up to 28.7 µM
In short: as §2

[17] = Primary qHTS for inhibitors of nuclear receptor binding SET domain protein 2 (NSD2) in an RCH-ACV wild type WT cells (2C) (AID 1645877); settings: activity change, negative = cell killing: at 44.9 µM (top of the series) unless noted; also: potency is read from the fitted curve at half-maximal effect; nearly all actives have a fitted effect of over 70% in size
Tags tell the direction and shape of the fitted curve.

For C=C[C@](C)(CC/C=C(\C)C(=O)O)O[C@@H]1OC[C@H](O)[C@H](O)[C@H]1O, the Potency [1] was “inactive”, the Potency [2] was active: 25.1 µM and the Potency [3] was active: 12.6 µM. For the same compound, the Potency [4] was “inactive”, the Potency [5] was “inactive” and the Potency [6] was “inactive”. For the same compound, the Potency [7] was active: 7.36 µM, the Potency [8] was inconclusive: 26.1 µM [activator, single point] and the Potency (HeLa) was “inactive”. The Potency (PA-1) was inconclusive: 11.2 µM [rising, single point], the Potency (SKOV3) was “inactive” and the Potency (Tov112D) was “inactive”.

In the case of CC(C)CC(=O)NCCn1cc(C(=O)O)c(=O)cc1C(O)c1ccccc1 (stereo not drawn), the Potency [3] is reported as inconclusive: 5.62 µM [inhibitor, full curve, poor fit], the Potency [7] is reported as inconclusive: 5.85 µM [inhibitor, partial curve, poor fit] and the Potency [8] is reported as “inactive”. For the same compound, the Potency (HeLa) was “inactive”, the Potency (PA-1) was “inactive” and the Potency (Tov-21-G) was “inactive”.

In the case of O=C(O)c1ccccc1C(=O)Nc1ccc(S(=O)(=O)Nc2nccs2)cc1, the Potency [9] is reported as “inactive”, the Potency [10] is reported as “inactive” and the Potency [11] is reported as “inactive”. For the same compound, the Potency [12] was “inactive”, the Potency [13] was inconclusive: 0.003 µM [cytotoxic, full curve, poor fit] and the Potency [14] was “inactive”. The Potency [15] was “inactive”, the Potency [16] was “inactive” and the Potency (HeLa) was “inactive”. The Potency (7G8) was “inactive”, the Potency (CP250) was “inactive” and the Potency (CP260) was inconclusive: 17.8 µM [inhibitor, single point]. The Potency (CP297) was inconclusive: 2.69 µM [inhibitor, partial curve, poor fit], the Potency (P93_24) was “inactive” and the Potency (TAB165) was “inactive”.

With COc1c2cc(c(O)c1OC)CCCCC(O)CCc1ccc(O)c-2c1 (stereo not drawn) the Potency [1] was inconclusive: 11.4 µM [inhibitor, single point], the Potency [3] was “inactive” and the Potency [5] was inconclusive: 20.1 µM [inhibitor, single point]. For the same compound, the Potency [17] was inconclusive: 20.1 µM [inhibitor, single point] and the Potency (HeLa) was “inactive”.
